± gives the standard deviation of the averaged measurements. This continues a long series; more values of the same kind are listed elsewhere.
Experiments:
SW620 [1] = assay: cell viability relative to vehicle (resazurin, 96 h); higher = more viable; conditions: base medium: RPMI + dialysed FBS
Experimental: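 SW620 WT or MTHFD2-/- cells were treated for 96 h with a compound dilution series (log10 M) in RPMI with normal or dialysed FBS. Viability was read by resazurin and is given as % of vehicle.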

SW620 [2] = assay: cell viability relative to lowest-dose well (resazurin, 96 h); higher = more viable; conditions: RPMI + 10% FBS
Outline: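 Viability values are expressed as percent of the lowest-dose well, using independent replicate cultures. HCT116 cells at 500 cells/well or SW620 cells at 1,000 cells/well were plated in 384-well plates in 50 µl RPMI containing 10% FBS and a metabolite supplement, then given compound dilution series dispensed from 10 mM DMSO stocks. After 96 h at 37 °C and 5% CO2, resazurin (10 µg ml^−1) conversion to resorufin was read by fluorescence at 595 nm after 5 h.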

CN(Cc1cnc2nc(N)nc(N)c2n1)c1ccc(C(=O)N[C@@H](CCC(=O)O)C(=O)O)cc1 [methotrexate]
SW620 [1]
Conditions | cell viability [%]
log10 compound concentration (M): -5, supplement / serum: 50 μM Hypoxanthine | 6.61 ± 0.93
log10 compound concentration (M): -5, supplement / serum: 50 μM Hypoxanthine + 50 μM Thymidine | 96.3 ± 12
log10 compound concentration (M): -5, supplement / serum: 50 μM Thymidine | 5.4 ± 1.1
log10 compound concentration (M): -5, supplement / serum: No metabolite | 6.17 ± 1.1
log10 compound concentration (M): -5.47712, supplement / serum: 50 μM Hypoxanthine | 7.87 ± 1.6
log10 compound concentration (M): -5.47712, supplement / serum: 50 μM Hypoxanthine + 50 μM Thymidine | 107 ± 5.3
log10 compound concentration (M): -5.47712, supplement / serum: 50 μM Thymidine | 6.85 ± 1.4
log10 compound concentration (M): -5.47712, supplement / serum: No metabolite | 6.28 ± 0.62
log10 compound concentration (M): -5.95424, supplement / serum: 50 μM Hypoxanthine | 7.98 ± 1.2
log10 compound concentration (M): -5.95424, supplement / serum: 50 μM Hypoxanthine + 50 μM Thymidine | 94.9 ± 13
log10 compound concentration (M): -5.95424, supplement / serum: 50 μM Thymidine | 6.27 ± 0.75
log10 compound concentration (M): -5.95424, supplement / serum: No metabolite | 6.16 ± 1.1
log10 compound concentration (M): -6.43136, supplement / serum: 50 μM Hypoxanthine | 8.16 ± 1.2
log10 compound concentration (M): -6.43136, supplement / serum: 50 μM Hypoxanthine + 50 μM Thymidine | 94.1 ± 6.9
log10 compound concentration (M): -6.43136, supplement / serum: 50 μM Thymidine | 6.32 ± 1
log10 compound concentration (M): -6.43136, supplement / serum: No metabolite | 6.68 ± 1.4
log10 compound concentration (M): -6.90849, supplement / serum: 50 μM Hypoxanthine | 8.56 ± 0.53
log10 compound concentration (M): -6.90849, supplement / serum: 50 μM Hypoxanthine + 50 μM Thymidine | 98 ± 7.7
log10 compound concentration (M): -6.90849, supplement / serum: 50 μM Thymidine | 6.77 ± 1
log10 compound concentration (M): -6.90849, supplement / serum: No metabolite | 8.09 ± 2
log10 compound concentration (M): -7.38561, supplement / serum: 50 μM Hypoxanthine | 22.8 ± 4.8
log10 compound concentration (M): -7.38561, supplement / serum: 50 μM Hypoxanthine + 50 μM Thymidine | 98.9 ± 4.2
log10 compound concentration (M): -7.38561, supplement / serum: 50 μM Thymidine | 8.11 ± 1.1
log10 compound concentration (M): -7.38561, supplement / serum: No metabolite | 7.17 ± 0.24
log10 compound concentration (M): -7.86273, supplement / serum: 50 μM Hypoxanthine | 76.7 ± 10
log10 compound concentration (M): -7.86273, supplement / serum: 50 μM Hypoxanthine + 50 μM Thymidine | 102 ± 3.5
log10 compound concentration (M): -7.86273, supplement / serum: 50 μM Thymidine | 24.3 ± 7.1
log10 compound concentration (M): -7.86273, supplement / serum: No metabolite | 14.3 ± 2.9
log10 compound concentration (M): -8.33985, supplement / serum: 50 μM Hypoxanthine | 95.5 ± 6.3
log10 compound concentration (M): -8.33985, supplement / serum: 50 μM Hypoxanthine + 50 μM Thymidine | 96.4 ± 9.1
log10 compound concentration (M): -8.33985, supplement / serum: 50 μM Thymidine | 88.2 ± 14
log10 compound concentration (M): -8.33985, supplement / serum: No metabolite | 90 ± 10
log10 compound concentration (M): -8.81697, supplement / serum: 50 μM Hypoxanthine | 93 ± 13
log10 compound concentration (M): -8.81697, supplement / serum: 50 μM Hypoxanthine + 50 μM Thymidine | 97.4 ± 5.5
log10 compound concentration (M): -8.81697, supplement / serum: 50 μM Thymidine | 86.7 ± 17
log10 compound concentration (M): -8.81697, supplement / serum: No metabolite | 96.8 ± 5.3
log10 compound concentration (M): -9.29409, supplement / serum: 50 μM Hypoxanthine | 98.8 ± 6.1
log10 compound concentration (M): -9.29409, supplement / serum: 50 μM Thymidine | 97.4 ± 14
log10 compound concentration (M): -9.29409, supplement / serum: No metabolite | 85.6 ± 15
log10 compound concentration (M): -9.77121, supplement / serum: 50 μM Hypoxanthine | 93.1 ± 7.1
log10 compound concentration (M): -9.77121, supplement / serum: 50 μM Hypoxanthine + 50 μM Thymidine | 98.4 ± 7.2
log10 compound concentration (M): -9.77121, supplement / serum: 50 μM Thymidine | 101 ± 4.8
log10 compound concentration (M): -9.77121, supplement / serum: No metabolite | 101 ± 12

cell viability [%], SW620 [2]
Conditions | 0.001 µM | 0.00278 µM
metabolite supplement: 50uM thymidine + 250uM folic acid | 98.9 ± 3 | 99.6 ± 3.7
metabolite supplement: 250uM folic acid | 99.3 ± 4.2 | 100 ± 4.9

O=c1[nH]cc(F)c(=O)[nH]1 [5-fluorouracil]
cell viability [%], SW620 [2]
Conditions | 0.01 µM | 0.0278 µM | 0.0774 µM | 0.215 µM | 0.599 µM
metabolite supplement: 50uM thymidine | 103 ± 1.4 | – | – | – | 89.6 ± 6
metabolite supplement: 50uM thymidine + 250uM folic acid | 104 ± 4.6 | 101 ± 4.6 | 102 ± 3.3 | 101 ± 1.4 | –
metabolite supplement: 250uM folic acid | 99.9 ± 0.7 | 100.3 ± 0.9 | 100 ± 2.2 | 98.4 ± 1.9 | 96.733 ± 0.058
metabolite supplement: vehicle | 102 ± 2.1 | – | – | – | –

Reference: the supplement of paper PMC10132981, “Formate overflow drives toxic folate trapping in MTHFD1 inhibited cancer cells” (Nature Metabolism, 2023)
